# From the supplement of paper PMC8728848
# This is one part of the list.
# What was measured:
# Test in all cases: glycan array binding signal (z-score within array); higher = stronger binding
# Conditions in all cases: glycan notation: IUPAC condensed, linker removed
# [1] = biological target: Neu5Ac(a2-6)Gal(b1-4)GlcNAc(b1-3)Gal(b1-4)GlcNAc(b1-3)Gal(b1-4)GlcNAc
# Outline: (§1)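 Arrays were curated from the Consortium for Functional Glycomics database, 3228 in total, and kept only where the protein sequence was available. Binding is expressed as a within-array Z-score. This score was averaged across arrays of the same protein sequence at different concentrations or buffers and across linkers, and negative values can be read as non-binding.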
# [2] = biological target: Neu5Ac(a2-6)Gal(b1-4)GlcNAc(b1-3)Gal(b1-4)GlcNAc(b1-3)Gal(b1-4)GlcNAc(b1-2)Man(a1-3)[Neu5Ac(a2-6)Gal(b1-4)GlcNAc(b1-3)Gal(b1-4)GlcNAc(b1-3)Gal(b1-4)GlcNAc(b1-2)Man(a1-6)]GalNAc
# Outline: as §1
# [3] = biological target: Neu5Ac(a2-6)Gal(b1-4)GlcNAc(b1-3)Gal(b1-4)GlcNAc(b1-3)GalNAc
# Outline: as §1
# [4] = biological target: Neu5Ac(a2-6)Gal(b1-4)GlcNAc(b1-3)Gal(b1-4)GlcNAc(b1-3)[Neu5Ac(a2-6)Gal(b1-4)GlcNAc(b1-3)Gal(b1-4)GlcNAc(b1-6)]GalNAc
# Outline: as §1
# [5] = biological target: Neu5Ac(a2-6)Gal(b1-4)GlcNAc(b1-3)Gal(b1-4)GlcNAc(b1-6)[Gal(b1-3)]GalNAc
# Outline: as §1
# [6] = biological target: Neu5Ac(a2-6)Gal(b1-4)GlcNAc(b1-3)Gal(b1-4)[Fuc(a1-3)]GlcNAc(b1-3)Gal(b1-4)[Fuc(a1-3)]GlcNAc
# Outline: as §1
# [7] = biological target: Neu5Ac(a2-6)Gal(b1-4)GlcNAc(b1-3)GalNAc
# Outline: as §1
# [8] = biological target: Neu5Ac(a2-6)Gal(b1-4)GlcNAc(b1-3)[Neu5Ac(a2-6)Gal(b1-4)GlcNAc(b1-6)]GalNAc
# Outline: as §1
# [9] = biological target: Neu5Ac(a2-6)Gal(b1-4)GlcNAc(b1-6)GalNAc
# Outline: as §1
# [10] = biological target: Neu5Ac(a2-6)Gal(b1-4)GlcNAc(b1-6)[Gal(b1-3)GlcNAc(b1-3)]Gal(b1-4)Glc
# Outline: as §1
# [11] = biological target: Neu5Ac(a2-6)Gal(b1-4)GlcNAc(b1-6)[Gal(b1-3)]GalNAc
# Outline: as §1
# [12] = biological target: Neu5Ac(a2-6)Gal(b1-4)GlcNAc6S
# Outline: as §1
# Neu5Ac(a2-6)GalNAc = biological target: Neu5Ac(a2-6)GalNAc
# Outline: as §1
# [13] = biological target: Neu5Ac(a2-6)GalNAc(b1-4)GlcNAc
# Outline: as §1
# [14] = biological target: Neu5Ac(a2-6)GalNAc(b1-4)GlcNAc6S
# Outline: as §1
# [15] = biological target: Neu5Ac(a2-6)GlcNAc(b1-4)GlcNAc
# Outline: as §1
# [16] = biological target: Neu5Ac(a2-6)GlcNAc(b1-4)GlcNAc(b1-4)GlcNAc
# Outline: as §1
# Neu5Ac(a2-8)Neu5Ac = biological target: Neu5Ac(a2-8)Neu5Ac
# Outline: as §1
# [17] = biological target: Neu5Ac(a2-8)Neu5Ac(a2-3)Gal(b1-3)GalNAc(b1-4)[Neu5Ac(a2-3)]Gal(b1-4)Glc
# Outline: as §1
# [18] = biological target: Neu5Ac(a2-8)Neu5Ac(a2-3)Gal(b1-3)GalNAc(b1-4)[Neu5Ac(a2-8)Neu5Ac(a2-3)]Gal(b1-4)Glc
# Outline: as §1
# [19] = biological target: Neu5Ac(a2-8)Neu5Ac(a2-3)Gal(b1-4)Glc
# Outline: as §1
# [20] = biological target: Neu5Ac(a2-8)Neu5Ac(a2-3)Gal(b1-4)GlcNAc
# Outline: as §1
# [21] = biological target: Neu5Ac(a2-8)Neu5Ac(a2-3)[Gal(b1-3)GalNAc(b1-4)]Gal(b1-4)Glc
# Outline: as §1
# [22] = biological target: Neu5Ac(a2-8)Neu5Ac(a2-3)[GalNAc(b1-4)]Gal(b1-4)Glc
# Outline: as §1
# [23] = biological target: Neu5Ac(a2-8)Neu5Ac(a2-8)Neu5Ac
# Outline: as §1
# [24] = biological target: Neu5Ac(a2-8)Neu5Ac(a2-8)Neu5Ac(a2-3)Gal(b1-4)Glc
# Outline: as §1
# [25] = biological target: Neu5Ac(a2-8)Neu5Ac(a2-8)Neu5Ac(a2-3)[Gal(b1-3)GalNAc(b1-4)]Gal(b1-4)Glc
# Outline: as §1
# [26] = biological target: Neu5Ac(a2-8)Neu5Ac(a2-8)Neu5Ac(a2-3)[GalNAc(b1-4)]Gal(b1-4)Glc
# Outline: as §1
# [27] = biological target: Neu5Ac(a2-8)Neu5Ac(a2-8)Neu5Ac(a2-8)Neu5Ac(a2-3)[GalNAc(b1-4)]Gal(b1-4)Glc
# Outline: as §1
# [28] = biological target: Neu5Ac(a2-8)Neu5Gc(a2-3)Gal(b1-4)GlcNAc
# Outline: as §1
# [29] = biological target: Neu5Ac(b2-6)Gal(b1-4)GlcNAc
# Outline: as §1
# Neu5Ac(b2-6)GalNAc = biological target: Neu5Ac(b2-6)GalNAc
# Outline: as §1
# [30] = biological target: Neu5Ac9Ac(a2-3)Gal(b1-3)GlcNAc
# Outline: as §1
# [31] = biological target: Neu5Ac9Ac(a2-3)Gal(b1-4)GlcNAc
# Outline: as §1
# [32] = biological target: Neu5Ac9Ac(a2-6)Gal(b1-4)GlcNAc
# Outline: as §1
# [33] = biological target: Neu5Gc(a2-3)Gal(b1-3)GlcNAc
# Outline: as §1
# [34] = biological target: Neu5Gc(a2-3)Gal(b1-3)[Fuc(a1-4)]GlcNAc
# Outline: as §1
# Neu5Gc(a2-3)Gal(b1-4)Glc = biological target: Neu5Gc(a2-3)Gal(b1-4)Glc
# Outline: as §1
# [35] = biological target: Neu5Gc(a2-3)Gal(b1-4)GlcNAc
# Outline: as §1
# [36] = biological target: Neu5Gc(a2-3)Gal(b1-4)GlcNAc(b1-3)Gal(b1-4)GlcNAc(b1-2)Man(a1-3)[Neu5Gc(a2-3)Gal(b1-4)GlcNAc(b1-3)Gal(b1-4)GlcNAc(b1-2)Man(a1-6)]Man(b1-4)GlcNAc(b1-4)GlcNAc
# Outline: as §1
# [37] = biological target: Neu5Gc(a2-3)Gal(b1-4)[Fuc(a1-3)]GlcNAc
# Outline: as §1
# [38] = biological target: Neu5Gc(a2-6)Gal(b1-4)GlcNAc
# Outline: as §1
# Neu5Gc(a2-6)GalNAc = biological target: Neu5Gc(a2-6)GalNAc
# Outline: as §1
# [39] = biological target: Neu5Gc(a2-8)Neu5Ac(a2-3)Gal(b1-4)GlcNAc
# Outline: as §1
# [40] = biological target: Neu5Gc(a2-8)Neu5Gc(a2-3)Gal(b1-4)GlcNAc
# Outline: as §1
binder,measurement,setting,value
"CrataBL (Crataeva tapia), C0HJA4 (protein) AILTGVPYYILPSTSRAGFSPDNLRKNTSQLSCPLDLITQLRFPRRIGVPVIFTPQNSSLKVVPLSHNLNIHTCSDLWFCPESKIWTVKSSLTHGGSVVTTGGTFRSLGSWFRIERHGDSYKLVHCPRGSTPCRDVGIETVGGGGRRYLAPRDRPLAVRFTRASG",glycan array binding signal (z-score),[1],-0.157
same,glycan array binding signal (z-score),[2],1.18
same,glycan array binding signal (z-score),[3],-0.075
same,glycan array binding signal (z-score),[4],0.817
same,glycan array binding signal (z-score),[5],0.72
same,glycan array binding signal (z-score),[6],-0.163
same,glycan array binding signal (z-score),[7],-0.316
same,glycan array binding signal (z-score),[8],0.352
same,glycan array binding signal (z-score),[9],1.16
same,glycan array binding signal (z-score),[10],-0.375
same,glycan array binding signal (z-score),[11],0.365
same,glycan array binding signal (z-score),[12],0.066
same,glycan array binding signal (z-score),Neu5Ac(a2-6)GalNAc,-0.499
same,glycan array binding signal (z-score),[13],-0.505
same,glycan array binding signal (z-score),[14],0.021
same,glycan array binding signal (z-score),[15],-0.099
same,glycan array binding signal (z-score),[16],-0.16
same,glycan array binding signal (z-score),Neu5Ac(a2-8)Neu5Ac,0.429
same,glycan array binding signal (z-score),[17],0.534
same,glycan array binding signal (z-score),[18],-0.21
same,glycan array binding signal (z-score),[19],-0.492
same,glycan array binding signal (z-score),[20],-0.22
same,glycan array binding signal (z-score),[21],-0.347
same,glycan array binding signal (z-score),[22],0.475
same,glycan array binding signal (z-score),[23],0.467
same,glycan array binding signal (z-score),[24],0.189
same,glycan array binding signal (z-score),[25],0.072
same,glycan array binding signal (z-score),[26],0.491
same,glycan array binding signal (z-score),[27],0.13
same,glycan array binding signal (z-score),[28],-0.462
same,glycan array binding signal (z-score),[29],-0.387
same,glycan array binding signal (z-score),Neu5Ac(b2-6)GalNAc,-0.456
same,glycan array binding signal (z-score),[30],-0.382
same,glycan array binding signal (z-score),[31],-0.414
same,glycan array binding signal (z-score),[32],-0.52
same,glycan array binding signal (z-score),[33],-0.462
same,glycan array binding signal (z-score),[34],-0.434
same,glycan array binding signal (z-score),Neu5Gc(a2-3)Gal(b1-4)Glc,-0.11
same,glycan array binding signal (z-score),[35],-0.39
same,glycan array binding signal (z-score),[36],-0.519
same,glycan array binding signal (z-score),[37],-0.303
same,glycan array binding signal (z-score),[38],0.096
same,glycan array binding signal (z-score),Neu5Gc(a2-6)GalNAc,-0.202
same,glycan array binding signal (z-score),[39],-0.358
same,glycan array binding signal (z-score),[40],-0.428
